Experimental data as given in the supplement of paper PMC3334620.
In all, about 33,000 sequences were measured (“E-score (-0.5 to 0.5)”: median about -0.012, highest 2% from about 0.29 on). The list shows a part of the results.

Target: T1, Ybr033w (UniProt P38073)
T1 sequence: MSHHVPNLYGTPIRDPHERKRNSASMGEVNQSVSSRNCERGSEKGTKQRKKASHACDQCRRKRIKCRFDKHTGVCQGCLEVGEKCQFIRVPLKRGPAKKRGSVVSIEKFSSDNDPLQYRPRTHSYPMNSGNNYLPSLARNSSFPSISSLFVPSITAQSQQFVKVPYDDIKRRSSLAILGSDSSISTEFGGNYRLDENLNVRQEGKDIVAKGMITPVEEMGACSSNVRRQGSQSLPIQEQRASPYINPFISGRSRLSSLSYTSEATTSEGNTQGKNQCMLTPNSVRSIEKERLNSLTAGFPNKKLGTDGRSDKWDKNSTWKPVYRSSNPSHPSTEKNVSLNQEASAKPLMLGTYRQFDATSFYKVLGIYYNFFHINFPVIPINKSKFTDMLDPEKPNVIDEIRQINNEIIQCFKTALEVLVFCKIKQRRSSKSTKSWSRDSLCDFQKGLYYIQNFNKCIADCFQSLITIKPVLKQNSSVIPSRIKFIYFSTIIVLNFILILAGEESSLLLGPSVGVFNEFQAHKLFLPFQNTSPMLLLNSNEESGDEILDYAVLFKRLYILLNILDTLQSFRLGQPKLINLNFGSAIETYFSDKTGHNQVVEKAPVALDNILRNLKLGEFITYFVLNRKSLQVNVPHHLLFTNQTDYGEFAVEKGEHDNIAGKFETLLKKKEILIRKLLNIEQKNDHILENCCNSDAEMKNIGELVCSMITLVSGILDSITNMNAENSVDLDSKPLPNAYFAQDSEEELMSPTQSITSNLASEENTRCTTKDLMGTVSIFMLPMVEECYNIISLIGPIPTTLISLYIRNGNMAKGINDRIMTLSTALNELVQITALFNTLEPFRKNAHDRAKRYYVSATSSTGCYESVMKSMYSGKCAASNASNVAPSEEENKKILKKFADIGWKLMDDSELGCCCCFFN
Assay: PBM E-score (8-mer binding enrichment) (E-score (-0.5 to 0.5)); higher = stronger / more preferred TF binding; most listed sequences are background and not binding sites
Details: protein concentration: 200 nM; construct: GST-full length
In short: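 PURExpress in vitro transcription/translation supplied GST-tagged yeast transcription factors, either full-length or DNA-binding domain. Applied at about 100-200 nM to universal all-10-mer Agilent arrays double-stranded by primer extension, the bound protein was detected with fluorescent anti-GST. E-scores, modified Wilcoxon-Mann-Whitney statistics, were given by the Universal PBM Analysis Suite to ungapped eight-base words pooled with their reverse complements after masliner normalisation.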

Row | Sequence | PBM E-score
1 | AGTTAATA | 0.336
2 | GCACCCGC | -0.169
3 | CTCACCGC | -0.024
4 | CGAATCGC | -0.0798
5 | AGGGTGAT | -0.055
6 | CGCAAAAC | 0.0887
7 | ACTGCACT | 0.0301
8 | CACGAATG | 0.0892
9 | CATGACCG | -0.335
10 | CTTGAGAC | -0.126
11 | ATAGGTAA | 0.132
12 | AGACCTCT | -0.13
13 | ACGCCTTC | -0.228
14 | CTCATAAC | 0.0384
15 | ATGACAAT | 0.293
16 | ACCGGCGT | -0.0665
17 | ATGAATGC | 0.045
18 | TCGCTACA | -0.212
19 | CCACCAAC | -0.0505
20 | TAAAGACA | 0.0462
21 | GAATGCTC | 0.0722
22 | CGCCTCTC | -0.423
23 | CAGGCTGA | -0.237
24 | ACGAGCTG | 0.00104
25 | CCATAGGC | -0.298

Row | Sequence | PBM E-score
26 | CTTCTGAC | 0.0292
27 | CAAGCGCA | 0.175
28 | ATCACAGG | -0.0736
29 | ACATGAAC | -0.00232
30 | TGCTCCAA | -0.0168
31 | GTATTCAC | 0.157
32 | TCTCGTAA | 0.0727
33 | ATGCTACG | 0.0843
34 | AAACGTAC | 0.21
35 | CCCAGTCG | -0.28
36 | GTTCTGCA | -0.173
37 | ATACGTAG | 0.134
38 | GAGCATAA | 0.101
39 | AAATTTAA | 0.29
40 | AATTTCTG | 0.128
41 | ACTCAGCC | -0.224
42 | CCGTGCTA | -0.234
43 | ATGATACA | 0.185
44 | GGCGTAAC | -0.184
45 | AAATACTT | 0.34
46 | ACATACGC | 0.00485
47 | TAACTAGA | 0.262
48 | AATAATGG | 0.162
49 | TGTAAGAA | 0.211
50 | CAATCACG | 0.122

Row | Sequence | PBM E-score
51 | ATAAACAG | 0.0706
52 | GGTAGATA | 0.148
53 | CGGTTATC | -0.136
54 | ACTGAATA | 0.153
55 | AACCCGCT | -0.139
56 | CTTAGGTA | 0.0299
57 | CGAGGTAA | -0.0143
58 | TCCGGCAA | 0.124
59 | AGAGACCA | -0.0563
60 | AACGACTA | -0.0272
61 | GCCCCCCA | -0.3
62 | ATGCTGCA | 0.0833
63 | ACTTTTCT | 0.104
64 | GCTACAGC | -0.0479
65 | CACACAAC | 0.0707
66 | ACTGCCGA | -0.0418
67 | AAACAGTT | 0.117
68 | GATTGGCC | -0.124
69 | ACGCACTC | -0.107
70 | AAACTTGA | 0.175
71 | AGTAGCAT | 0.159
72 | AAGACTCA | -0.108
73 | AGTTGCAA | -0.00435
74 | CTCCAATC | 0.147
75 | ATATTGTC | 0.215

Row | Sequence | PBM E-score
76 | CAGACACG | -0.15
77 | GCCCAACC | -0.022
78 | AACGTGTG | -0.0995
79 | ATGCTAAG | -0.119
80 | AAGAGCCT | -0.0721
81 | ACGCTCAC | -0.0506
82 | GTCAGATA | 0.119
83 | GATACAGC | -0.00182
84 | CTGATTGC | -0.0487
85 | TCTTAAGA | -0.0768
86 | CTCGGAGA | -0.0768
87 | AAATCGGG | 0.0855
88 | ATATCTAA | 0.213
89 | GTCCTAGA | -0.191
90 | AAACCATG | 0.0309
91 | TGACGTCA | 0.205
92 | GAACTACC | 0.0466
93 | ATCATAGC | 0.149
94 | AGAACAGC | 0.0617
95 | CTAATCTA | 0.107
96 | CTGCTGAC | -0.101
97 | GAACACGC | -0.00223
98 | CTATGGGA | -0.129
99 | AAGTGCCC | -0.341
100 | ACCTTTCA | -0.0108

Row | Sequence | PBM E-score
101 | ACGCGGCG | -0.168
102 | GACGATCC | 0.023
103 | AGATCTAG | -0.112
104 | AGCATACT | -0.004
105 | ATTTGATA | 0.24
106 | CTCGTACC | -0.0303
107 | CCATACTA | 0.285
108 | GCCTCGAC | -0.265
109 | ACGTAAGG | -0.0499
110 | AGTGGGAG | -0.148
111 | AGTGTCGC | 0.0408
112 | ACAACCTG | -0.0436
113 | ATAGATAT | 0.197
114 | ATACACCA | 0.158
115 | CGACTAAG | -0.0131
116 | GGCACACC | -0.285
117 | ATTTTCCC | 0.386
118 | GTATTTAA | 0.267
119 | TCTACGAA | -0.105
120 | TCTGCAGA | -0.188
121 | AGGGCCGA | -0.064
122 | ACGCGGCA | -0.188
123 | CGGTAGCA | -0.112
124 | CAGGATGC | -0.00818
125 | GAAAAGAA | 0.135

Row | Sequence | PBM E-score
126 | AGCTGTGC | -0.0796
127 | AAGCATGC | -0.0259
128 | AGGGCTGA | -0.122
129 | AGGTAGCG | 0.0165
130 | TACACATA | 0.0729
131 | GAGGATAA | 0.0436
132 | ACTGAACA | 0.129
133 | ACGCCGGC | -0.0959
134 | GCATATGC | -0.016
135 | AGCAAGAG | -0.161
136 | AAGTAAAT | 0.228
137 | ATGGACAC | 0.0613
138 | CTGCTTTC | 0.129
139 | AGAATGTA | 0.12
140 | GGTTGCAA | 0.0604
141 | CCCGAACA | -0.116
142 | AAGTACCT | -0.0912
143 | CGAAATTC | 0.107
144 | ATGCTGGC | -0.00335
145 | ACGATCAC | -0.145
146 | AACTGCTT | 0.0101
147 | CGGAAATA | 0.433
148 | ATTGGTTA | 0.212
149 | AATAGCCC | -0.0499
150 | TACGCGGA | 0.0454

Row | Sequence | PBM E-score
151 | ACGCCGCG | -0.129
152 | CCCTAGAA | -0.0272
153 | ACACGTAT | 0.11
154 | CAGAACGG | -0.191
155 | CGTCCCGA | -0.0892
156 | CTACCGAC | -0.117
157 | ATTTTGAC | 0.171
158 | AAAACGGT | -0.016
159 | GCCCAGCC | -0.099
160 | GACTATAA | 0.102
161 | AACCACCC | -0.235
162 | ACTGATCC | 0.00583
163 | CAATTACG | 0.0611
164 | AATCACAG | 0.0305
165 | AAACAAAT | 0.287
166 | GCAAAACC | -0.0331
167 | CTGAAACC | -0.00354
168 | CGGGTAGA | -0.0322
169 | AAGGGGAG | -0.235
170 | CATCACCA | -0.0166
171 | CCTCCACG | -0.12
172 | ATTTGCGA | 0.255
